Assay results published in article PMC12040169 (PLOS Biology, 2025).
The list shows a part of the results.

Tested on: T1, C. trachomatis L2/434/Bu expressing GFP (CTL2-GFP)
T1 construct: L2/434/Bu GFP intracellular growth in HeLa cells
Parameters: species or system HeLa; C. trachomatis total inclusion area by high-content imaging, normalised to DMSO
Details: total inclusion area; 28.5 h, 10 µM; inhibitor
How it was run: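 High-content imaging followed the bulk GFP/resorufin measurement: fixed, Hoechst-stained cells were scored for GFP inclusions and host nuclei per well. Total inclusion area and count served as growth proxies, nuclei number as the viability proxy. MIC calculation matched the bulk assay.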

Compound | % of control remaining
CCc1nc2ccccc2n1CC(=O)N(Cc1cccnc1)C1CC1 [CBK304064] | 37.3374
COc1cc(C(=O)Nc2ccc3[nH]ccc3c2)cc(OC)c1OC [CBK159696] | 110.12
CCOC(=O)N1CCC(NC(=O)N2CCN(c3cc(C(F)(F)F)ccn3)CC2)CC1 [CBK162353] | 30.6259
Cn1c(SCc2cccnc2)nnc1-c1cccs1 [CBK067706] | 39.9842
CCC(C)c1ccc(OCC(=O)Nc2ccc3[nH]c(=O)[nH]c3c2)cc1 (centres unmarked) [CBK266911] | 93.4045
O=C(Cn1cnnn1)NCc1cccnc1OCC(F)(F)F [CBK306467] | 67.2594
Cc1ccc(S(=O)(=O)NC(C)(C)CSc2ccccn2)cc1 [CBK266360] | 132.666
CCN(CC)CCNC(=O)N1CCN(c2ccccc2)CC1 [CBK155202] | 77.1333
O=C(Cn1cnnn1)N1CCc2ccccc2C1 [CBK200335] | 107.742
NC(=O)c1ccccc1NC(=O)CCSc1ccc([N+](=O)[O-])cc1Cl [CBK266396] | 104.883
Cc1ccc(F)c(OC2(C(=O)O)CCN(Cc3cnc(C)nc3)CC2)c1 [CBK306860] | 71.7514
O=C(CN1C(=O)c2ccncc2C1=O)Nc1ccccn1 [CBK288624] | 108.229
Cc1nc2ccccc2n1CC(=O)N(CCC#N)Cc1ccco1 [CBK306323] | 76.5661
Cc1ccc2c(c1)c(=O)cc(C(F)(F)F)n2CCNC(=O)C1CC1 [CBK284831] | 114.2
CCN(CC)CCn1c(NC(=O)CCC2CCNC2)nc2ccccc21 (centres unmarked) [CBK304693] | 84.7737
Cc1nn(C)cc1C(=O)N1CCC(c2cc3c(C)cccc3cn2)CC1 [CBK282231] | 114.842
Cc1cc(NC(=O)N2CCN(CCNC(=O)C3CCCC3)CC2)no1 [CBK305064] | 83.5451
COc1ccc(C(=O)N2CCN(Cc3ccc(SC)cc3)CC2)cc1 [CBK058613] | 53.9136
COc1ccc(C)cc1NC(=O)C1CC(=O)Nc2ncnn21 (centres unmarked) [CBK270274] | 86.1947
Oc1ccc(-c2n[nH]c(=S)n2-c2ccccc2)cc1 [CBK014887] | 59.356
CC1=C[C@@H](CN2CCC(O)CC2)[C@H](C(C)C)C[C@H]1Cc1nnc(-c2ccccc2)o1 [CBK289220] | 108.054
CCC(NC(=O)c1ccc(C#CC2(O)CCCCC2)cc1)C(=O)O (centres unmarked) [CBK287160] | 95.9626
c1ccc(Nc2[nH]nnc2-c2ccccc2)cc1 [CBK261015] | 74.8371
N#C/C(=C\c1ccc(OCC(=O)c2ccc(F)cc2)cc1)c1nc(-c2cc3ccccc3oc2=O)cs1 [CBK266769] | 105.749
O=S(=O)(Nc1nnc(Cc2ccc(Cl)cc2)s1)c1ccc(Cl)cc1 [CBK200048] | 100.313
O=C1N(c2cccc(Cl)c2)Cc2nc(=O)[nH]n21 [CBK288430] | 92.8344
CN1CC(C(=O)N2CCCC(c3cc4cccnc4[nH]3)C2)CC1=O (centres unmarked) [CBK284958] | 122.209

Compound | % of control remaining
Cc1cc2cc3c(nc2cc1C)OCCNC3 [CBK281939] | 93.4997
CCc1nc2ccc(C(=O)N3CCCCC3)cn2c1N(C)CCC(C)C [CBK146065] | 96.1701
CN1CCN(c2cc(N)nc(N)n2)CC1 [CBK266102] | 142.061
O=C(CSCc1c(Cl)cccc1Cl)Nc1ccc(-c2nnc(-c3ccccc3)o2)cc1 [CBK267817] | 97.8966
CC1CCCN(CC(O)COCc2ccc3c(c2)OCO3)C1 (centres unmarked) [CBK262830C] | 78.8913
CC(C)c1ccc(CNC(=O)c2ccc3[nH]ccc3c2)cc1 [CBK161754] | 99.5469
O=C(O)COc1ccccc1/C=N\N1CCN(Cc2ccccc2Cl)CC1 [CBK020891] | 91.9448
CCOC(=O)c1ccc(NS(=O)(=O)c2cc(Cl)ccc2Cl)cc1 [CBK077746] | 83.5055
CCOC(=O)C1CCN(Cc2cccs2)CC1 [CBK026999] | 71.0266
CC(C)(C)N(Cc1ccccc1)C(=O)Cn1nc(C(=O)O)c2ccccc2c1=O [CBK297498] | 73.2045
COc1ccccc1C/C(N)=N/OC(=O)COc1cccc2ccccc12 [CBK263012] | 105.157
CN1CCN(C(=O)c2ccc(-c3cccc(C(=O)NCCO)c3)nc2N(C)C)CC1 [CBK076581] | 102.599
O=C1COc2ccccc2CCCC[C@@H]2CN(C(=O)CN3C(=O)CNC3=O)CC[C@H]2N1 [CBK292047] | 101.002
COc1ccc(-n2c(SCCc3ccccc3)nnc2-c2ccncc2)cc1 [CBK265618] | 114.801
c1coc(C2N3CCC4(CC3)c3[nH]c5ccccc5c3CCN24)c1 (centres unmarked) [CBK282862] | 87.573
COc1cc(NC(=S)NCCN2CCOCC2)c(OC)cc1Cl [CBK265888] | 92.2278
N#Cc1ccc(C(=O)NCc2ccc(OC3CCNCC3)cc2)cc1 [CBK036358T] | 104.152
CC(C)[C@H](CO)Nc1nccnc1-c1ccncc1 [CBK089030] | 66.5835
Cc1cc(Nc2ccc(I)cc2)n2ncnc2n1 [CBK027364] | 32.0702
Cc1cccc(=O)n1CCCn1cc(-c2ncc[nH]2)nn1 [CBK307401] | 63.4882
O=C(NCc1csc(-c2ccccc2)n1)C(F)(F)F [CBK092340] | 99.0557
Cc1nc2cc(OCc3nc(C(=O)NC4CCNC4=O)co3)ccc2s1 (centres unmarked) [CBK307298] | 28.0867
COc1cc(CCN2CCN(C(C)C)CC2)cc(OC)c1OC [CBK028881C] | 54.2114
O=c1[nH]c2ncc(-c3ccco3)nc2n1Cc1ccc(F)c(Cl)c1 [CBK064393] | 74.6113
O=C(NC1Cc2ccccc2C1)c1ccc2ncccc2c1 [CBK200354] | 97.0208
CC(=O)Nc1ccc(-c2ccc(=O)n3c2[C@@H]2C[C@@H](CN(C4CCOCC4)C2)C3)cc1 [CBK289201] | 99.1355
